Data taken from PubChem BioAssay AID485294 (National Center for Advancing Translational Sciences (NCATS), 2010).
Out of some 370,000 compounds screened, about 150 (0.041%) were called active. This list was built around the results that the source calls inconclusive (neither active nor inactive); the mix of calls is not that of the screen. Calls come from the whole dose curve; as a rule, active = well fitted inhibition curve with a large enough effect; inconclusive = small, poorly fitted or top-dose-only effect; inactive = flat fitted curve, though single readings scatter. No potency is given beside an inconclusive call; the fits are too rough.

Target: Beta-lactamase (Escherichia coli (strain K12)) (UniProt P00811)
Experiment: qHTS Inhibitors of AmpC Beta-Lactamase (assay with detergent); note: nearly all actives have a fitted effect of over 25% in size
Details: AmpC hydrolysis of nitrocefin, absorbance 480 nm, 0.01% Triton; series mostly up to 114 µM
Summary of the method: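 AmpC (5.3 nM in the dispensed reagent) in 20 mM phosphate pH 7.0 with 0.01% (detergent screen) or 0.0001% Triton X-100 was preincubated with compounds for 15 min at room temperature. Nitrocefin was then added from an 800 uM solution, and hydrolysis was followed at 480 nm.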
Potency is the fitted concentration of half-maximal effect; tags give direction and shape of the fitted curve.

Chain of UniProt P00811 (P00811 whole entry, looked up): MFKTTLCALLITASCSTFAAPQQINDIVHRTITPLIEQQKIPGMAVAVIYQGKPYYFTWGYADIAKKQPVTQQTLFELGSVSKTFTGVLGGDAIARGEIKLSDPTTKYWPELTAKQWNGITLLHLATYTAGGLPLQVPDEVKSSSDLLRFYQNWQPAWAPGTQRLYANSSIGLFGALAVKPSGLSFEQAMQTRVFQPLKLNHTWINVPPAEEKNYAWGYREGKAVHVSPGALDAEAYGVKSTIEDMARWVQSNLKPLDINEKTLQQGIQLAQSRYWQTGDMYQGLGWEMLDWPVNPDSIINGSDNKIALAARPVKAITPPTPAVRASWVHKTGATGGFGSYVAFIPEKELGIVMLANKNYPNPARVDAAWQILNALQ

Row | SMILES | Potency
1 | O=C(N/N=C/C=C/c1ccc([N+](=O)[O-])cc1)c1cccs1 | inconclusive [inhibitor, partial curve]
2 | Cc1ccccc1Nc1nc(N)nc(COC(=O)c2cccc(S(=O)(=O)N(C)c3ccccc3)c2)n1 | inactive
3 | COc1ccc(NCc2nnc(SCC(=O)Nc3cc(C(F)(F)F)ccc3Cl)o2)cc1 | inconclusive [inhibitor, full curve, poor fit]
4 | Cc1cc(C)c2cc3c(ccn3C3OC[C@H](O)[C@H](O)[C@H]3O)cc2n1 (stereo partly drawn) | inconclusive [inhibitor, partial curve]
5 | Cc1ccc(NC(=O)C2(S(=O)(=O)c3ccc(C)cc3)CC2)cc1 | inconclusive [inhibitor, single point]
6 | c1ccc(-c2ccc(C3CCCN3)cc2)cc1 (stereo not drawn) | inactive
7 | COc1ccc(OCc2cc(-c3ccc(Cl)cc3)no2)cc1 | inconclusive [inhibitor, full curve, poor fit]
8 | CN(C)S(=O)(=O)c1cccc(C(=O)Nc2ccccc2[N+](=O)[O-])c1 | inactive
9 | CCCOc1ccc(CNC(=O)Cn2ncc3ccccc32)cc1 | inactive
10 | O=c1oc2ccc(Cl)cc2cc1-c1ccccc1 | inconclusive [inhibitor, full curve, poor fit]
11 | CCCOc1ccc(Cc2nc(N)nc(N)n2)cc1 | inconclusive [inhibitor, full curve, poor fit]
12 | CCOc1cc2c3c(c1)C(C)CC(C)(C)N3C(=O)C2=O (stereo not drawn) | inactive
13 | O=C1NC2(CCCCCC2)C(=O)N1CCS(=O)(=O)Oc1ccccc1 | inconclusive [inhibitor, partial curve, poor fit]
14 | CC(=O)N(C(C)=O)S(=O)(=O)c1ccc(N=NN2CCCCC2)cc1 | inconclusive [inhibitor, full curve]
15 | O=C(O)c1ccc(N2CCN(C(c3ccccc3)c3ccccc3)CC2)c([N+](=O)[O-])c1 | inconclusive [inhibitor, partial curve, poor fit]
16 | O=C(O)CC12C[C@H]3C[C@@H](C1)CC(n1ncc(N4CCN(c5ccccc5)CC4)c(Cl)c1=O)(C3)C2 | inconclusive [inhibitor, single point]
17 | O=[N+]([O-])c1ccc(NCCCN2CCOCC2)c(Cl)c1 | inconclusive [inhibitor, partial curve]
18 | CC(OC(=O)c1ccc(C#N)cc1)C(=O)Nc1ccc(Cl)cn1 (stereo not drawn) | inconclusive [inhibitor, full curve]
